Here are results for three molecules from PubChem BioAssay AID198 (DTP/NCI, 2004).

Inconclusive results and toxic doses are left out. Not every entry of the source has a single result; some have several. The list is limited to them. There may be further records. The records of an entry repeat one measurement (runs, samples, wells, individuals or studies).

The assay concerns B16 melanoma ip, C57BL/6 mice, median survival T/C. Nature of the assay: NCI In Vivo Anticancer Drug Screen. Data for tumor model B16 Melanoma (intraperitoneal) in C57BL/6 mice. The note with it: endpoint: median survival time, schedule: Q01DX009 (ip), vehicle: saline, higher = longer survival. How it is done:
The antitumor activity of compounds was measured in mice bearing transplantable tumors. Survival or tumor size were measured and the results are expressed as the measurement made in the treated group (T) divided by the measurement made in the vehicle treated control group (C). The tumor model used in this assay is B16 Melanoma (intraperitoneal) in C57BL/6 mice

`O=NN(CCCl)C(=O)NCCCl`: under “dose: 3.75 mg/kg/injection”, the T/C is 121 % of control and 170 % of control.

As for `O=c1[nH]cc(N(CCCl)CCCl)c(=O)[nH]1`, the T/C (dose: 0.75 mg/kg/injection) was 112 % of control and 178 % of control. Regarding `NC(Cc1ccc(N(CCCl)CCCl)cc1)C(=O)O` (stereo not drawn), under “dose: 8.0 mg/kg/injection”, the T/C is 118 % of control, 250 % of control, 378 % of control.
